T1: CD127 (Sinobiological, 10975-H03H-50) (UniProt P16871 21-239)
T1 construct: Bought protein, immobilised on the CM5 chip for Biacore; also called CD127 receptor; IL-7Rα
T1 sequence (looked up): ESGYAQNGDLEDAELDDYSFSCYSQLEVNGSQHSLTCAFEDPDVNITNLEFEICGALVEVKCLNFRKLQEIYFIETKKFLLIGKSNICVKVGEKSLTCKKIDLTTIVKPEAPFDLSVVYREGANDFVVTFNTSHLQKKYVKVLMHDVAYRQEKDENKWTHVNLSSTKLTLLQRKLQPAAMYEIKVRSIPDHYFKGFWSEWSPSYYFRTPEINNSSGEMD

T2: CD132 receptor (Sinobiological 10555-H08B) (UniProt P31785 23-254)
T2 construct: Bought protein injected over the CD127/IL-7 complex in Biacore; also called common γ chain
T2 sequence (looked up): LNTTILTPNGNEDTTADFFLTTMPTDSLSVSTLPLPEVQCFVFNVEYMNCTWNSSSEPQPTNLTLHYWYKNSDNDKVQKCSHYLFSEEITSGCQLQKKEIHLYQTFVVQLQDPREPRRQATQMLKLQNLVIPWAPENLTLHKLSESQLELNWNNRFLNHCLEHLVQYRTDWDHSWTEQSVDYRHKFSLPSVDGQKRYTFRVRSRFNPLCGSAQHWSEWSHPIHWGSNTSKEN

T3: Human recombinant PD-L2 (human, UniProt Q9BQ51 20-219, limits assumed)
T3 construct: Immobilised on the CM5 biochip; also called human PD-L2 recombinant protein
T3 sequence (looked up): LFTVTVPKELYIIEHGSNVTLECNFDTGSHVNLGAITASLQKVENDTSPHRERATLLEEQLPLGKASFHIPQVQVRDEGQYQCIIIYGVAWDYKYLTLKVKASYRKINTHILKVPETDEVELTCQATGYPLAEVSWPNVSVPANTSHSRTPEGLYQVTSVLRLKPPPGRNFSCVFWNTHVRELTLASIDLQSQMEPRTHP

B1: recombinant human PD-1 (Example 2) (receptor)
chain: not shown
modifications: biotinylated in the PD-L1 ELISA (site not stated)
notes: Biotinylated form in the ELISA on PD-L1; recombinant human PD-1 (100 nM) in the Biacore assay on PD-L2; also called biotinylated recombinant human PD-1; PD-1 recombinant protein

Key:
[1] = biological target: T4, Recombinant hPD1-His (Sino Biologicals, reference 10377-H08H) (human, UniProt Q15116 part only); assay: ELISA: human recombinant PD-1 coated, anti-human Fc peroxidase, TMB [FOLLOWING) B]
T4 construct: also called human recombinant PD-1 (rPD1) protein; PD-1 receptor
Method: Revelation was performed with an anti-human Fc antibody coupled to peroxidase. Colorimetry was determined at 450 nm using TMB substrate. […] C.

[2] = biological target: B1; assay: competition ELISA: PD-L1 coated, antibody mixed with biotinylated PD-1 at 0.6 ug/mL, streptavidin peroxidase; blocked ligand PD-L1
[3] = biological target: T1, CD127 (Sinobiological, 10975-H03H-50); assay: Biacore, CD127 immobilised on CM5 chip; bivalent model
Method: (§1) CD127 (Sinobiological, 10975-H03H-50) was immobilized onto a CM5 biochip at 20 μg/ml and the indicated protein were added at serial concentrations (0.34; 1.03; 3.11; 9.3; 28 nM).

[4] = biological target: T2, CD132 receptor (Sinobiological …); assay: Biacore, CD132 injected over the CD127/IL-7 complex on the chip
Method: as §1

Human recombinant PD-L2 = biological target: T3, Human recombinant PD-L2; assay: Biacore: PD-L2 immobilised on a CM5 chip, PD-1 at 100 nM
Description: Data are represented in % of relative response of interaction as measured by Biacore: 100%=PD-1 relative response.
Chimeric forms of PD-1 antibodies were used in this test. […] Data are represented in % of relative response of interaction as measured by Biacore: 100%=PD-1 relative response. Chimeric forms of the PD-1 antibodies were used in this experiment.

| Binder | EC50 (read off the curve) [1] [ng/mL] | IC50 (read off the curve) [2] [nM] | Kd [3] [nM] | Kd [4] [nM] | binding result (Human recombinant PD-L2) |
| --- | --- | --- | --- | --- | --- |
| anti-PD1VHandVL-IL7, chimeric Bicki (other, not shown: small tags and cut ends, also called chimeric anti-PD1 antibody fused to IL7 on its heavy and light chain) heavy: QIQLVQSGPELKKPGETVKISCKASGYTFTHYGMNWVKQAPGKGLKWMGWINTNTGEPTYAEEFKGRFAFSLETSASAAFLQINNLKNEDTATYFCAKEREPGMDSWGQGTSVTVSSASTKGPSVFPLAPCSRSTSESTAALGCLVKDYFPEPVTVSWNSGALTSGVHTFPAVLQSSGLYSLSSVVTVPSSSLGTKTYTCNVDHKPSNTKVDKRV[here human IgG4 Fc with S228P L445P (EU numbers) without letters]DCDIEGKDGKQYESVLMVSIDQLLDSMKEIGSNCLNNEFNFFKRHICDANKEGMFLFRAARKLRQFLKMNSTGDFDLHLLKVSEGTTILLNCTGQVKGRKPAALGEAQPTKSLEENKSLKEQKKLNDLCFLKRLLQEIKTCWNKILMGTKEH light: DVLLTQTPLSLPVSLGDQASISCRSSQNIVHANGNTYLEWYLQKPGQSPKLLIYKVSNRFSGVPDRFSGSGSGTDFTLKITRVEAEDLGVYYCFQGSHVPNTFGGGTKLEIKRTVAAPSVFIFPPSDEQLKSGTASVVCLLNNFYPREAKVQWKVDNALQSGNSQESVTEQDSKDSTYSLSSTLTLSKADYEKHKVYACEVTHQGLSSPVTKSFNRGECDCDIEGKDGKQYESVLMVSIDQLLDSMKEIGSNCLNNEFNFFKRHICDANKEGMFLFRAARKLRQFLKMNSTGDFDLHLLKVSEGTTILLNCTGQVKGRKPAALGEAQPTKSLEENKSLKEQKKLNDLCFLKRLLQEIKTCWNKILMGTKEH | ~3 |  |  |  |  |
| anti-PD1VH-IL7, chimeric form (other, Antibody-cytokine fusion; also called Bicki anti-PD1VH-IL7; chimeric Bicki) heavy: QIQLVQSGPELKKPGETVKISCKASGYTFTHYGMNWVKQAPGKGLKWMGWINTNTGEPTYAEEFKGRFAFSLETSASAAFLQINNLKNEDTATYFCAKEREPGMDSWGQGTSVTVSSASTKGPSVFPLAPCSRSTSESTAALGCLVKDYFPEPVTVSWNSGALTSGVHTFPAVLQSSGLYSLSSVVTVPSSSLGTKTYTCNVDHKPSNTKVDKRV[here human IgG4 Fc with S228P L445P (EU numbers) without letters]GGGGSGGGGSGGGGSDCDIEGKDGKQYESVLMVSIDQLLDSMKEIGSNCLNNEFNFFKRHICDANKEGMFLFRAARKLRQFLKMNSTGDFDLHLLKVSEGTTILLNCTGQVKGRKPAALGEAQPTKSLEENKSLKEQKKLNDLCFLKRLLQEIKTCWNKILMGTKEH light: DVLLTQTPLSLPVSLGDQASISCRSSQNIVHANGNTYLEWYLQKPGQSPKLLIYKVSNRFSGVPDRFSGSGSGTDFTLKITRVEAEDLGVYYCFQGSHVPNTFGGGTKLEIKRTVAAPSVFIFPPSDEQLKSGTASVVCLLNNFYPREAKVQWKVDNALQSGNSQESVTEQDSKDSTYSLSSTLTLSKADYEKHKVYACEVTHQGLSSPVTKSFNRGEC | ~6 | ~3 | 0.9 | 323 |  |
| B1 |  |  |  |  | binds |
| anti-PD1VL-IL7, chimeric form (other, Antibody-cytokine fusion, IL-7 on the light chain; also called Bicki anti-PD1VL-IL7) heavy: QIQLVQSGPELKKPGETVKISCKASGYTFTHYGMNWVKQAPGKGLKWMGWINTNTGEPTYAEEFKGRFAFSLETSASAAFLQINNLKNEDTATYFCAKEREPGMDSWGQGTSVTVSSASTKGPSVFPLAPCSRSTSESTAALGCLVKDYFPEPVTVSWNSGALTSGVHTFPAVLQSSGLYSLSSVVTVPSSSLGTKTYTCNVDHKPSNTKVDKRV[here human IgG4 Fc with S228P L445P (EU numbers) without letters] light: DVLLTQTPLSLPVSLGDQASISCRSSQNIVHANGNTYLEWYLQKPGQSPKLLIYKVSNRFSGVPDRFSGSGSGTDFTLKITRVEAEDLGVYYCFQGSHVPNTFGGGTKLEIKRTVAAPSVFIFPPSDEQLKSGTASVVCLLNNFYPREAKVQWKVDNALQSGNSQESVTEQDSKDSTYSLSSTLTLSKADYEKHKVYACEVTHQGLSSPVTKSFNRGECGGGGSGGGGSGGGGSDCDIEGKDGKQYESVLMVSIDQLLDSMKEIGSNCLNNEFNFFKRHICDANKEGMFLFRAARKLRQFLKMNSTGDFDLHLLKVSEGTTILLNCTGQVKGRKPAALGEAQPTKSLEENKSLKEQKKLNDLCFLKRLLQEIKTCWNKILMGTKEH | ~5 |  | 1.2 | 470 |  |
